The values that follow come from the antibiotic and cytotoxicity screens of Wong et al. (2023).

Some of the results follow.

The test system of this experiment is HSkMC (human skeletal muscle cells). Put plainly: cytotoxicity call (relative viability < 0.9). To be noted: 10 µM.
`COc1ccc(CN(C)C[C@@H]2OCCCC[C@H](C)Oc3ccc(NS(=O)(=O)c4c(C)noc4C)cc3C(=O)N([C@H](C)CO)C[C@@H]2C)cc1`: the cytotoxicity call was “inactive”.

`C[C@@H]1CN([C@@H](C)CO)C(=O)c2cc(NC(=O)Cc3ccccc3)ccc2O[C@@H]1CN(C)Cc1ccc(-c2ccccc2)cc1`: the cytotoxicity call was “inactive”.

Consider `C[C@H](CO)N1C[C@H](C)[C@H](CN(C)Cc2ccc(-c3ccccc3)cc2)Oc2ccc(NC(=O)Nc3cccc4ccccc34)cc2CC1=O`, for which the cytotoxicity call was “inactive”.

In the case of `C[C@@H]1CCCCO[C@H](CN(C)C(=O)Nc2ccc3c(c2)OCO3)[C@H](C)CN([C@@H](C)CO)C(=O)c2cc(NC(=O)c3ccncc3)ccc2O1`, the cytotoxicity call was “inactive”.

Consider `NCc1ccc(-c2ccccc2O)cc1`, for which the cytotoxicity call is “inactive”.

`C[C@@H]1CN([C@@H](C)CO)C(=O)c2cc(NC(=O)Cn3cnnn3)ccc2O[C@@H]1CN(C)S(C)(=O)=O`: the cytotoxicity call is “inactive”.

Regarding `C[C@H]1CCCCO[C@@H](CN(C)Cc2ccncc2)[C@@H](C)CN([C@@H](C)CO)C(=O)c2cc(NC(=O)c3ccccc3)ccc2O1`, the cytotoxicity call was “inactive”.

As to `COc1ccc(NC(=O)N(C)C[C@H]2Oc3ccc(NC(=O)CCN4CCOCC4)cc3CC(=O)N([C@@H](C)CO)C[C@H]2C)cc1`, the cytotoxicity call is “inactive”.

Turning to `C[C@@H]1CN([C@H](C)CO)C(=O)Cc2cc(N(C)C)ccc2O[C@H]1CN(C)S(=O)(=O)c1cn(C)cn1`, the cytotoxicity call was “inactive”.

With `C[C@H]1CCCCO[C@H](CN(C)S(=O)(=O)c2ccc(Cl)cc2)[C@@H](C)CN([C@@H](C)CO)C(=O)c2cc(NS(=O)(=O)c3cccs3)ccc2O1`, the cytotoxicity call was “inactive”.

With `O=C(C[C@@H]1CC[C@@H]2[C@H](COC[C@H](O)CN2C(=O)Nc2ccc(Cl)cc2)O1)NCCc1ccncc1`, the cytotoxicity call was “inactive”.

`CC(C)NC(=O)N(C)C[C@H]1Oc2ccc(NC(=O)Cn3cnnn3)cc2CC(=O)N([C@H](C)CO)C[C@H]1C`: the cytotoxicity call is “inactive”.

On to `C[C@H]1CCCCO[C@H](CN(C)C(=O)Nc2ccc(F)cc2)[C@@H](C)CN([C@@H](C)CO)C(=O)c2cc(NC(=O)c3ccccc3)ccc2O1`, for which the cytotoxicity call was “inactive”.

With `CC(=O)N(C)C[C@@H]1Oc2ncc(C#C[C@H](C)O)cc2C(=O)N([C@@H](C)CO)C[C@H]1C`, the cytotoxicity call is “inactive”.

`C[C@@H]1CCCCO[C@H](CN(C)S(=O)(=O)c2ccc(Cl)cc2)[C@@H](C)CN([C@H](C)CO)C(=O)c2cc(NC(=O)Cc3ccccc3)ccc2O1`: the cytotoxicity call was “inactive”.

As to `C[C@@H]1CN([C@H](C)CO)C(=O)c2cc(NS(=O)(=O)c3ccc(Cl)cc3)ccc2O[C@@H]1CN(C)Cc1ccc(C(=O)Nc2ccccc2N)cc1`, the cytotoxicity call was “inactive”.

`Cc1cc(C(=O)Nc2cccc3c2O[C@H](CN(C)S(=O)(=O)c2ccc(F)cc2)[C@@H](C)CN([C@H](C)CO)C3=O)n(C)n1`: the cytotoxicity call is “inactive”.

For `C[C@@H]1CCCCO[C@H](CN(C)C(=O)Nc2ccc(C(F)(F)F)cc2)[C@@H](C)CN([C@@H](C)CO)C(=O)c2cc(NC(=O)NC3CCCCC3)ccc2O1`, the cytotoxicity call is “inactive”.

On to `COc1ccc(NC(=O)N(C)C[C@H]2OCCCC[C@H](C)Oc3ccc(NC(=O)CCC(F)(F)F)cc3C(=O)N([C@@H](C)CO)C[C@@H]2C)cc1`, for which the cytotoxicity call is “inactive”.

In the case of `CN1C(=O)c2cc(NC(=O)c3ccc(F)cc3)ccc2OC[C@H]2O[C@@H](CC(=O)N3CCOCC3)CC[C@@H]21`, the cytotoxicity call was “inactive”.

For the compound `Cc1ccc(OCCN)c(Br)c1`, the cytotoxicity call is “inactive”.

For the compound `Cc1ccc(S(=O)(=O)Nc2ccc3c(c2)C(=O)N([C@@H](C)CO)C[C@H](C)[C@@H](CN(C)C(=O)Cc2ccccc2)OCCCC[C@H](C)O3)cc1`, the cytotoxicity call is “inactive”.

With `NNC(=O)CCCC[C@H]1SC[C@H]2NC(=O)N[C@H]21`, the cytotoxicity call was “inactive”.

On to `CC(=O)OCN1CCN(COC(C)=O)C1=O`, for which the cytotoxicity call is “inactive”.

As for `Cc1ccc(-c2cc(C(F)(F)F)nn2-c2ccc(S(N)(=O)=O)cc2)cc1`, the cytotoxicity call was “inactive”.

Turning to `Nc1[nH]ncc1-c1cc(Cl)ccc1Oc1cc(F)c(S(=O)(=O)Nc2cscn2)cc1Cl`, the cytotoxicity call was “inactive”.

With `C[C@H](CO)N1C[C@H](C)[C@@H](CN(C)C(=O)Nc2ccc(C(F)(F)F)cc2)Oc2ccc(NC(=O)Cn3cnnn3)cc2C1=O`, the cytotoxicity call is “inactive”.

`CCCCC[C@@H](O)C[C@@H](O)CC(=O)O[C@@H](CCCCC)C[C@@H](O)CC(=O)OC[C@@H](O)[C@@H](O)[C@@H](O)[C@@H](O)CO`: the cytotoxicity call is “inactive”.

For `CC(C)NC(=O)N(C)C[C@@H]1Oc2ccc(NS(=O)(=O)c3cccs3)cc2CC(=O)N([C@@H](C)CO)C[C@@H]1C`, the cytotoxicity call was “inactive”.

As for `C[C@@H]1CCCCO[C@H](CN(C)S(=O)(=O)c2cccs2)[C@@H](C)CN([C@H](C)CO)C(=O)c2cc(NS(C)(=O)=O)ccc2O1`, the cytotoxicity call was “inactive”.
